Test results reported in the BET-seq Pho4 binding data (Le et al. 2018).
This is one part of the list. The energies were worked out here from pooled read counts, against the library average; single values are noisy.

Target: T1, Pho4 (S. cerevisiae) (UniProt P07270)
T1 sequence: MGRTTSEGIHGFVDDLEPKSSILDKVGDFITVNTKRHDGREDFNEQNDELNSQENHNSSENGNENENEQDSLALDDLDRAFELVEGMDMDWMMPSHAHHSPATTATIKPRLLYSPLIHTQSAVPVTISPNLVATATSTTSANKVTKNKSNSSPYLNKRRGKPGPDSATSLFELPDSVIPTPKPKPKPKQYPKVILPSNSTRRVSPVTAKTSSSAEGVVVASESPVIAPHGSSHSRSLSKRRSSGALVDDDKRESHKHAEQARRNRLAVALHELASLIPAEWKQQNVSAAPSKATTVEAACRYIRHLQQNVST
Test: relative binding free energy (BET-seq); higher = weaker binding
Conditions: reference: library average

| Sequence | relative binding free energy |
| --- | --- |
| GTTGGCACGTGGGGGA | -0.14 kcal/mol |
| GGGAGCACGTGTTTTA | -0.08 kcal/mol |
| GATAACACGTGATGTA | 0.28 kcal/mol |
| TAGTACACGTGGATTT | 0.06 kcal/mol |
| TTAGGCACGTGGCGCG | -0.33 kcal/mol |
| TGTGGCACGTGGTCGA | -0.18 kcal/mol |
| ACGGGCACGTGTTTGT | -0.16 kcal/mol |
| AGATTCACGTGTTCGA | 0.25 kcal/mol |
| CAGCGCACGTGGGGGA | -0.25 kcal/mol |
| TGCTGCACGTGGGTCG | -0.17 kcal/mol |
| TTTAACACGTGTTAGA | -0.05 kcal/mol |
| TTTTTCACGTGTGTCA | 0.32 kcal/mol |
| GTTGCCACGTGAGGAG | 0.2 kcal/mol |
| TCGATCACGTGAGGGT | 0.39 kcal/mol |
| TGATGCACGTGTGGGC | -0.03 kcal/mol |
| GGGTCCACGTGGGATT | 0.04 kcal/mol |
| TGTCGCACGTGGTAAG | -0.06 kcal/mol |
| ATAGGCACGTGAAGGT | 0.1 kcal/mol |
| TGTTCCACGTGTTTGA | 0.18 kcal/mol |
| ACAGACACGTGGTTGG | -0.08 kcal/mol |
| TTTGTCACGTGTATAC | 0.02 kcal/mol |
| CTAGACACGTGGTTGT | -0.05 kcal/mol |
| ATATTCACGTGGAGGA | 0.03 kcal/mol |

| Sequence | relative binding free energy |
| --- | --- |
| TGGCTCACGTGTGTTC | 0.32 kcal/mol |
| GTTTCCACGTGGATGA | 0.2 kcal/mol |
| CTGAGCACGTGCGGTG | -0.16 kcal/mol |
| CATGGCACGTGTAGGT | -0.08 kcal/mol |
| TTGTGCACGTGTATCT | -0.13 kcal/mol |
| AAGTACACGTGGGTGA | -0.06 kcal/mol |
| TGGATCACGTGGTACT | 0.12 kcal/mol |
| AAGTGCACGTGGGGTA | -0.18 kcal/mol |
| GTTTACACGTGTAGCT | 0.14 kcal/mol |
| TGTGTCACGTGAGTCA | 0.24 kcal/mol |
| CACGGCACGTGGGTGG | -0.2 kcal/mol |
| GGGTTCACGTGTTGGG | 0.43 kcal/mol |
| TGTAACACGTGTTCGG | -0.1 kcal/mol |
| TGTTACACGTGCTATG | -0.01 kcal/mol |
| GTGTACACGTGATGCT | 0.15 kcal/mol |
| ATTTTCACGTGTGCCA | 0.26 kcal/mol |
| TATGACACGTGAATGG | 0.3 kcal/mol |
| TTTTACACGTGTTAGG | 0.06 kcal/mol |
| TGGATCACGTGTAGTC | 0.12 kcal/mol |
| TGAGGCACGTGTCGTG | 0.04 kcal/mol |
| TTATGCACGTGTTGTT | -0.03 kcal/mol |
| GTTAGCACGTGAAGTA | 0.35 kcal/mol |
| GTATGCACGTGAGAGA | 0.19 kcal/mol |

| Sequence | relative binding free energy |
| --- | --- |
| ATACGCACGTGAGTGT | 0.02 kcal/mol |
| AATCTCACGTGGAGGT | 0.14 kcal/mol |
| GTGTTCACGTGCAGAA | 0.33 kcal/mol |
| TGGCCCACGTGTTTGG | -0.06 kcal/mol |
| GTACGCACGTGAGAGT | 0.4 kcal/mol |
| ATTAACACGTGTCTGG | -0.02 kcal/mol |
| TACTTCACGTGGTTTA | 0.2 kcal/mol |
| TACGCCACGTGGGTGG | -0.17 kcal/mol |
| AGCAACACGTGTGTTT | 0.05 kcal/mol |
| ATAGTCACGTGCACGG | 0.19 kcal/mol |
| GCTGTCACGTGTTGTG | 0.09 kcal/mol |
| ATGTTCACGTGGATGG | 0.12 kcal/mol |
| TTTGACACGTGAGGAA | 0.12 kcal/mol |
| GTGCTCACGTGTGTGG | 0.25 kcal/mol |
| TGACGCACGTGGCTTG | -0.1 kcal/mol |
| TTGGACACGTGCTGGT | 0.03 kcal/mol |
| TGGGGCACGTGCTGTT | -0.25 kcal/mol |
| TGTTGCACGTGGCAGT | -0.09 kcal/mol |
| TGTTGCACGTGGGAAC | 0 kcal/mol |
| GGAAGCACGTGGGCTG | -0.14 kcal/mol |
| GGGCGCACGTGAGTGT | 0.09 kcal/mol |
| GGTTGCACGTGCTGGG | 0 kcal/mol |
| TTATACACGTGAAGAT | 0.33 kcal/mol |

| Sequence | relative binding free energy |
| --- | --- |
| TGGTCCACGTGTGGAG | -0.14 kcal/mol |
| ATTATCACGTGGACGG | 0.08 kcal/mol |
| GATTGCACGTGCTGTT | 0.02 kcal/mol |
| CTGTGCACGTGGGGTT | -0.23 kcal/mol |
| GGGTGCACGTGGGTAC | -0.13 kcal/mol |
| TTACGCACGTGGTTGG | -0.1 kcal/mol |
| CTCGACACGTGTTGGG | 0.07 kcal/mol |
| TTGTCCACGTGTATTT | 0.13 kcal/mol |
| ATGATCACGTGGTTAG | -0.06 kcal/mol |
| TGAAACACGTGGGTGC | -0.16 kcal/mol |
| TATTCCACGTGAGTGT | 0.32 kcal/mol |
| CAAGTCACGTGGGTCG | 0.01 kcal/mol |
| TGTGGCACGTGCAGGC | -0.06 kcal/mol |
| GAATTCACGTGGGTTA | 0.09 kcal/mol |
| TAATGCACGTGGTGGG | -0.09 kcal/mol |
| ATAGGCACGTGAGGTT | -0.04 kcal/mol |
| GGGGCCACGTGATTTG | 0.16 kcal/mol |
| TCTTACACGTGGGAGT | 0.15 kcal/mol |
| GGAAGCACGTGAGTAT | 0.05 kcal/mol |
| AGAGGCACGTGCTGGT | -0.21 kcal/mol |
| TATAACACGTGGTAGT | -0.16 kcal/mol |
| TGACACACGTGGTATT | -0.01 kcal/mol |
| GTATTCACGTGGCGGC | 0.27 kcal/mol |

| Sequence | relative binding free energy |
| --- | --- |
| TCGGGCACGTGATGGA | 0.03 kcal/mol |
| ATGTGCACGTGGCGCT | -0.08 kcal/mol |
| ATGATCACGTGTTGCG | 0.12 kcal/mol |
| GAATTCACGTGGGGTT | 0.21 kcal/mol |
| TGCGTCACGTGCGGGT | -0.02 kcal/mol |
| TGAGTCACGTGTTGAA | 0.05 kcal/mol |
| TGTAGCACGTGGGTTT | -0.17 kcal/mol |
| CTTGGCACGTGTTTCA | -0.08 kcal/mol |
| TAGGTCACGTGCAGGA | 0.17 kcal/mol |
| GGAGACACGTGGGTGG | -0.06 kcal/mol |
| TATTTCACGTGATAAA | 0.22 kcal/mol |
| TTTCTCACGTGTATTA | 0.19 kcal/mol |
| ATTGACACGTGGGTGC | -0.15 kcal/mol |
| AGCTTCACGTGCTTTG | 0.26 kcal/mol |
| GGTCTCACGTGTATTA | 0.25 kcal/mol |
| GTGGTCACGTGTTTCA | 0.24 kcal/mol |
| TTGGGCACGTGTGTTG | -0.15 kcal/mol |
| AGAGTCACGTGGTGAC | 0.07 kcal/mol |
| TGTAGCACGTGACCGT | 0.1 kcal/mol |
| CTTTGCACGTGTGGGA | 0.16 kcal/mol |
| CTGGTCACGTGTGTTT | 0.23 kcal/mol |
| TCTGACACGTGGGTTT | -0.02 kcal/mol |
| GAAAGCACGTGGTCGG | -0.18 kcal/mol |
